Measurements published in the supplement of paper PMC8728848.
The list shows a part of the results.

What was measured:
Experiment in all cases: glycan array binding signal (z-score within array); higher = stronger binding
Conditions in all cases: glycan notation: IUPAC condensed, linker removed
[1] = target: Neu5Ac(a2-6)Gal(b1-4)GlcNAc6S
Method in brief: (§1)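 Negative Z-scores can be read as non-binding. The Z-score is calculated within each array and then averaged across arrays of one protein sequence at different concentrations or buffers and across linkers. Arrays, 3228 in all, were curated from the Consortium for Functional Glycomics database and kept only where the protein sequence was available.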

Neu5Ac(a2-6)GalNAc = target: Neu5Ac(a2-6)GalNAc
Method in brief: as §1

[2] = target: Neu5Ac(a2-6)GalNAc(b1-4)GlcNAc
Method in brief: as §1

[3] = target: Neu5Ac(a2-6)GalNAc(b1-4)GlcNAc6S
Method in brief: as §1

[4] = target: Neu5Ac(a2-6)GlcNAc(b1-4)GlcNAc
Method in brief: as §1

[5] = target: Neu5Ac(a2-6)GlcNAc(b1-4)GlcNAc(b1-4)GlcNAc
Method in brief: as §1

Neu5Ac(a2-8)Neu5Ac = target: Neu5Ac(a2-8)Neu5Ac
Method in brief: as §1

[6] = target: Neu5Ac(a2-8)Neu5Ac(a2-3)Gal(b1-3)GalNAc(b1-4)[Neu5Ac(a2-3)]Gal(b1-4)Glc
Method in brief: as §1

[7] = target: Neu5Ac(a2-8)Neu5Ac(a2-3)Gal(b1-3)GalNAc(b1-4)[Neu5Ac(a2-8)Neu5Ac(a2-3)]Gal(b1-4)Glc
Method in brief: as §1

[8] = target: Neu5Ac(a2-8)Neu5Ac(a2-3)Gal(b1-4)Glc
Method in brief: as §1

[9] = target: Neu5Ac(a2-8)Neu5Ac(a2-3)Gal(b1-4)GlcNAc
Method in brief: as §1

[10] = target: Neu5Ac(a2-8)Neu5Ac(a2-3)[Gal(b1-3)GalNAc(b1-4)]Gal(b1-4)Glc
Method in brief: as §1

[11] = target: Neu5Ac(a2-8)Neu5Ac(a2-3)[GalNAc(b1-4)]Gal(b1-4)Glc
Method in brief: as §1

[12] = target: Neu5Ac(a2-8)Neu5Ac(a2-8)Neu5Ac
Method in brief: as §1

[13] = target: Neu5Ac(a2-8)Neu5Ac(a2-8)Neu5Ac(a2-3)Gal(b1-4)Glc
Method in brief: as §1

[14] = target: Neu5Ac(a2-8)Neu5Ac(a2-8)Neu5Ac(a2-3)[Gal(b1-3)GalNAc(b1-4)]Gal(b1-4)Glc
Method in brief: as §1

[15] = target: Neu5Ac(a2-8)Neu5Ac(a2-8)Neu5Ac(a2-3)[GalNAc(b1-4)]Gal(b1-4)Glc
Method in brief: as §1

[16] = target: Neu5Ac(a2-8)Neu5Ac(a2-8)Neu5Ac(a2-8)Neu5Ac(a2-3)[GalNAc(b1-4)]Gal(b1-4)Glc
Method in brief: as §1

[17] = target: Neu5Ac(a2-8)Neu5Gc(a2-3)Gal(b1-4)GlcNAc
Method in brief: as §1

Neu5Ac(b1-6)GalNAc = target: Neu5Ac(b1-6)GalNAc
Method in brief: as §1

[18] = target: Neu5Ac(b2-6)Gal(b1-4)GlcNAc
Method in brief: as §1

Neu5Ac(b2-6)GalNAc = target: Neu5Ac(b2-6)GalNAc
Method in brief: as §1

[19] = target: Neu5Ac9Ac(a2-3)Gal(b1-3)GlcNAc
Method in brief: as §1

[20] = target: Neu5Ac9Ac(a2-3)Gal(b1-4)GlcNAc
Method in brief: as §1

[21] = target: Neu5Ac9Ac(a2-6)Gal(b1-4)GlcNAc
Method in brief: as §1

[22] = target: Neu5Gc(a2-3)Gal(b1-3)GlcNAc
Method in brief: as §1

[23] = target: Neu5Gc(a2-3)Gal(b1-3)[Fuc(a1-4)]GlcNAc
Method in brief: as §1

Neu5Gc(a2-3)Gal(b1-4)Glc = target: Neu5Gc(a2-3)Gal(b1-4)Glc
Method in brief: as §1

[24] = target: Neu5Gc(a2-3)Gal(b1-4)GlcNAc
Method in brief: as §1

[25] = target: Neu5Gc(a2-3)Gal(b1-4)GlcNAc(b1-3)Gal(b1-4)GlcNAc(b1-2)Man(a1-3)[Neu5Gc(a2-3)Gal(b1-4)GlcNAc(b1-3)Gal(b1-4)GlcNAc(b1-2)Man(a1-6)]Man(b1-4)GlcNAc(b1-4)GlcNAc
Method in brief: as §1

[26] = target: Neu5Gc(a2-3)Gal(b1-4)[Fuc(a1-3)]GlcNAc
Method in brief: as §1

[27] = target: Neu5Gc(a2-6)Gal(b1-4)GlcNAc
Method in brief: as §1

Neu5Gc(a2-6)GalNAc = target: Neu5Gc(a2-6)GalNAc
Method in brief: as §1

[28] = target: Neu5Gc(a2-8)Neu5Ac(a2-3)Gal(b1-4)GlcNAc
Method in brief: as §1

[29] = target: Neu5Gc(a2-8)Neu5Gc(a2-3)Gal(b1-4)GlcNAc
Method in brief: as §1

[30] = target: Neu5Gc(a2-8)Neu5Gc(a2-3)Gal(b1-4)GlcNAc(b1-3)Gal(b1-4)GlcNAc
Method in brief: as §1

[31] = target: Neu5Gc(a2-8)Neu5Gc(a2-6)Gal(b1-4)GlcNAc
Method in brief: as §1

[32] = target: Neu5Gc(b2-6)Gal(b1-4)GlcNAc
Method in brief: as §1

B1: AMA (Arum maculatun) (protein)
chain: MAKLLLLLLLPAIVGLAVPRSAAAVGSNYMLSGETLNTDGRLTNGELTLIMQVDCNLVLYHGGWQSNTANNGRDCKLTLTDFGELVIKSGTGSTVWSSGSKQSMKGNYAAVVHPEGRLVIYGPSVFKINPSGAGLNGLPLRNIPLTNNMLFSGQVLYGDGTLSARNHKLVMQGDCNMVLYGGKYGWQSNTHGNGKYCFAMLTHKGELVIRDDDFKSVWSSKSSSKQGDYVFILQDDSLAIIYGPAVFSTGSKKMISMVTN
[1]
  glycan array binding signal (z-score): -0.206
Neu5Ac(a2-6)GalNAc
  glycan array binding signal (z-score): -0.224
[2]
  glycan array binding signal (z-score): -0.217
[3]
  glycan array binding signal (z-score): -0.223
[4]
  glycan array binding signal (z-score): -0.217
[5]
  glycan array binding signal (z-score): -0.209
Neu5Ac(a2-8)Neu5Ac
  glycan array binding signal (z-score): -0.214
[6]
  glycan array binding signal (z-score): -0.205
[7]
  glycan array binding signal (z-score): -0.218
[8]
  glycan array binding signal (z-score): -0.226
[9]
  glycan array binding signal (z-score): -0.216
[10]
  glycan array binding signal (z-score): -0.212
[11]
  glycan array binding signal (z-score): -0.218
[12]
  glycan array binding signal (z-score): -0.218
[13]
  glycan array binding signal (z-score): -0.215
[14]
  glycan array binding signal (z-score): -0.204
[15]
  glycan array binding signal (z-score): -0.203
[16]
  glycan array binding signal (z-score): -0.214
[17]
  glycan array binding signal (z-score): -0.217
Neu5Ac(b1-6)GalNAc
  glycan array binding signal (z-score): -0.26
[18]
  glycan array binding signal (z-score): -0.228
Neu5Ac(b2-6)GalNAc
  glycan array binding signal (z-score): -0.214
[19]
  glycan array binding signal (z-score): -0.217
[20]
  glycan array binding signal (z-score): -0.164
[21]
  glycan array binding signal (z-score): -0.224
[22]
  glycan array binding signal (z-score): 1.46
[23]
  glycan array binding signal (z-score): -0.23
Neu5Gc(a2-3)Gal(b1-4)Glc
  glycan array binding signal (z-score): -0.219
[24]
  glycan array binding signal (z-score): -0.222
[25]
  glycan array binding signal (z-score): -0.123
[26]
  glycan array binding signal (z-score): -0.216
[27]
  glycan array binding signal (z-score): -0.209
Neu5Gc(a2-6)GalNAc
  glycan array binding signal (z-score): -0.217
[28]
  glycan array binding signal (z-score): -0.222
[29]
  glycan array binding signal (z-score): -0.22
[30]
  glycan array binding signal (z-score): -0.215
[31]
  glycan array binding signal (z-score): -0.211
[32]
  glycan array binding signal (z-score): -0.21
